Test results reported in the supplement of paper PMC12217912.
The other results are listed elsewhere or left out. The full chains were built here from the parent and the listed change. Values near 0.05 are background.

B1: TEV protease; numbered along this chain (parent)
chain: MGESLFKGPRDYNPISSSICHLTNESDGHTTSLYGIGFGPFIITNKHLFRRNNGTLVVQSLHGVFKVKDTTTLQQHLVDGRDMIIIRMPKDFPPFPQKLKFREPQREERICLVTTNFQTKSMSSMVSDTSCTFPSGDGIFWKHWIQTKDGQCGSPLVSTRDGFIVGIHSASNFTNTNNYFTSVPKNFMELLTNQEAQQWVSGWRLNADSVLWGGHKVFMVKPEEPFQPVKEATQL

Variants of: B1
Test: raw area under fraction-flipped curve 0-4 h after induction (AUC4h, not background-subtracted), DNA-recorder readout of cleavage of the substrate (dimensionless); higher = more cleavage of the substrate by the protease variant
Details: temperature: 34 °C; time window: 0-4 h after rhamnose induction
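Further: Bxb1 expression induced with 0.2% (w/v) L-rhamnose at OD600 near 0.5, cultures sampled hourly, flipped fraction per protease–substrate barcode pair counted by paired-end Illumina sequencing.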

Row | Variant | area with substrate ENCYFQS | area with substrate ENFYFQS | area with substrate ENKYFQS | area with substrate ENNYFQS | area with substrate ENQYFQS | area with substrate ENSYFQS | area with substrate ENVYFQS | area with substrate ENWYFQS | area with substrate ENDYFQS | area with substrate ENEYFQS | area with substrate ENRYFQS | area with substrate ENTYFQS | area with substrate ENHYFQS | area with substrate ENPYFQS | area with substrate ENYYFQS | area with substrate ENGYFQS | area with substrate ENMYFQS | area with substrate ENIYFQS
1 | Y179E | 0.0637 | 0.0614 | 0.0642 | 0.0691 | 0.0551 | 0.0661 | 0.0562 | 0 |  |  |  |  |  |  |  |  |  | 
2 | F218N | 0.0544 |  | 0.0607 | 0.0548 | 0.0686 | 0.0514 |  | 0.0578 | 0.0687 | 0.0615 | 0.0575 | 0.0547 |  |  |  |  |  | 
3 | P184F | 0.0952 |  | 0.0614 |  | 0.0518 | 0.0585 | 0.0527 | 0.0613 | 0.0504 | 0.0721 | 0.0337 | 0.0585 | 0.0674 | 0.0647 | 0.0598 |  |  | 
4 | Q59K |  | 0.0775 |  | 0.0501 |  | 0.0563 | 0.0781 |  | 0.0659 | 0.081 |  | 0.0568 | 0.0478 |  | 0.0631 | 0.057 | 0.0697 | 
5 | K100Y |  | 0.0595 | 0.068 | 0.0534 | 0.0442 | 0.058 | 0.0825 | 0.0258 | 0.0354 | 0.059 | 0.0615 | 0.0663 |  | 0.0664 | 0.0382 | 0.0651 | 0.0845 | 
6 | V126I |  | 0.0294 | 0.0576 |  |  | 0.0773 |  | 0.0488 | 0.0583 | 0.0602 |  |  | 0.0882 | 0.0628 | 0.0441 |  | 0.0666 | 0.0927
7 | K142W |  | 0.066 | 0.0374 | 0.0536 | 0.0644 | 0.0573 | 0.0465 |  | 0.0725 | 0.0645 | 0.0593 | 0.0635 | 0.0404 |  |  | 0.0586 | 0.0572 | 0.0674
8 | T174K |  | 0.0663 |  | 0.0672 |  | 0.0446 |  | 0.0643 | 0.063 | 0.0698 |  |  |  | 0.0455 |  |  |  | 
9 | T174S |  |  |  |  |  |  |  | 0.0413 | 0.0665 |  |  |  |  |  |  |  |  | 
10 | S26E |  | 0.0656 |  | 0.0822 | 0.0496 | 0.0551 | 0.0854 | 0.0372 | 0.0581 | 0.0593 | 0.0099 | 0.0621 |  |  | 0.0779 | 0.0695 | 0.057 | 
11 | F187Y | 0.07 | 0.0549 | 0.0486 | 0.0591 | 0.0539 | 0.0587 | 0.0659 |  | 0.0637 | 0.0644 |  |  |  |  | 0.064 | 0.0606 | 0.0597 | 0.0816
12 | K230S | 0.0658 | 0.0512 | 0.0678 | 0.0624 | 0.0636 |  | 0.0507 | 0.0512 | 0.0539 |  | 0.0566 | 0.0738 | 0.0425 |  |  |  | 0.0761 | 0.109
13 | R106E |  | 0.0644 |  | 0.0556 | 0.0707 | 0.0451 | 0.106 |  | 0.0554 | 0.0634 | 0.0509 | 0.0385 | 0.0512 | 0.0568 | 0.0718 | 0.0927 | 0.0895 | 
14 | P94A |  |  |  |  | 0.049 |  |  |  |  | 0.0595 |  |  | 0.0501 |  | 0.0601 | 0.0681 |  | 
15 | E3C |  |  |  | 0.0498 | 0.0511 |  | 0.0718 |  | 0.0511 | 0.0547 |  | 0.0731 |  | 0.0639 |  |  |  | 
16 | E3R |  |  | 0.0595 | 0.0696 | 0.0701 | 0.0595 |  |  | 0.0643 |  |  | 0.0561 | 0.064 |  |  | 0.0542 |  | 0.0992
17 | I15M |  | 0.0606 |  | 0.0439 | 0.058 | 0.056 | 0.0848 | 0.034 | 0.0451 | 0.0576 | 0.0611 | 0.0594 |  |  | 0.0655 | 0.0692 |  | 
18 | Q234T |  | 0.0642 | 0.0633 |  | 0.0559 | 0.0598 | 0.0696 |  | 0.0581 | 0.0592 | 0.0545 | 0.0711 | 0.0684 |  |  | 0.0579 |  | 0.11
19 | Q234S |  | 0.0434 | 0.0718 | 0.0588 | 0.0632 | 0.0583 | 0.0748 |  | 0.0582 | 0.0637 |  | 0.0536 | 0.0349 | 0.0562 |  | 0.054 |  | 
20 | L156R |  | 0.05 | 0.0661 | 0.0501 | 0.0345 | 0.0288 |  |  | 0.0533 | 0.0436 |  | 0.0504 | 0.0551 | 0.0438 |  | 0.0615 |  | 
21 | V183W |  | 0.0541 | 0.0458 | 0.054 |  | 0.062 |  | 0.0573 | 0.0282 |  | 0.0679 | 0.0513 | 0.0516 |  | 0.0771 | 0.0655 | 0.0507 | 0.0804
22 | V183D |  |  |  | 0.0561 | 0.0377 | 0.0555 |  | 0.0586 | 0.0578 | 0.0543 | 0.0483 | 0.0386 | 0.0636 |  |  | 0.0625 | 0.0428 | 0.0608
23 | E231N | 0.0997 | 0.0691 |  | 0.0303 | 0.0633 | 0.0572 | 0.104 | 0.0642 | 0.0611 | 0.0809 | 0.0646 | 0.0431 | 0.0671 |  |  |  |  | 
24 | F95A |  | 0.0521 | 0.076 |  | 0.0813 | 0.0696 | 0.0585 | 0.0542 | 0.0548 | 0.0552 | 0.0601 | 0.0435 | 0.0537 | 0.0562 |  | 0.0455 |  | 
25 | D137F |  |  |  | 0.0687 | 0.0595 | 0.0938 |  |  | 0.0739 | 0.06 | 0.0558 | 0.0772 |  |  | 0.0549 | 0.0537 | 0.102 | 0.0782
26 | V229K |  | 0.0763 | 0.0768 |  | 0.0606 | 0.0524 | 0.0741 | 0.0531 | 0.0592 | 0.0577 | 0.064 | 0.0546 |  |  |  |  |  | 
27 | F226Q | 0.0828 | 0.0795 |  | 0.0741 | 0.0675 |  | 0.0711 | 0.0396 | 0.0532 |  |  | 0.0541 | 0.0527 |  | 0.0639 | 0.0619 |  | 
28 | M219T | 0.0606 | 0.0627 |  |  | 0.071 |  | 0.0701 |  | 0.053 | 0.0574 |  |  |  |  |  | 0.0439 |  | 0.0774
29 | G63R |  | 0.088 |  | 0.0659 | 0.0558 | 0.0583 | 0.0814 |  | 0.0541 | 0.0588 | 0.0503 |  | 0.0205 | 0.065 |  |  |  | 
30 | L235E | 0.064 | 0.0631 |  |  | 0.0433 |  |  |  |  |  |  |  | 0.0664 |  |  |  | 0.0721 | 
